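Five compound concentrations were applied to cells in 96-well plates for 48 hours; endpoints were derived by simple linear interpolation of the resulting dose-response curve. GI50: concentration for 50% inhibition of growth. TGI marks complete inhibition of growth.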
Tested on: NCI-H322M lung
Assay: NCI anticancer screen, dose series, 48 h

SMILES: C=C1CC[C@@H]2[C@]3(C)COC(c4ccccc4)O[C@@H]3CC[C@@]2(C)[C@@H]1C/C=C1/C(=O)OCC1OC(C)=O (stereo partly specified)
- GI50: 13.5 µM
- TGI: 26.4 µM

SMILES: CN(C)C(=O)c1cc(-c2ccc3ncnc(N4CCc5cc(F)c(Cl)cc54)c3c2)cnc1N
- GI50: 0.136 µM
- TGI: 1.22 µM

SMILES: O=C(CS(=O)(=O)c1oc(-c2ccc(Cl)cc2)nc1S(=O)(=O)c1ccccc1)N1CCCC1
- GI50: 13.9 µM
- TGI: 26.8 µM
